In paper PMC7506554 one finds binding data, which are given here for five substances.

By UniProt entry, the sequences of proteins in these tests, tags left out.
UniProt Q03113: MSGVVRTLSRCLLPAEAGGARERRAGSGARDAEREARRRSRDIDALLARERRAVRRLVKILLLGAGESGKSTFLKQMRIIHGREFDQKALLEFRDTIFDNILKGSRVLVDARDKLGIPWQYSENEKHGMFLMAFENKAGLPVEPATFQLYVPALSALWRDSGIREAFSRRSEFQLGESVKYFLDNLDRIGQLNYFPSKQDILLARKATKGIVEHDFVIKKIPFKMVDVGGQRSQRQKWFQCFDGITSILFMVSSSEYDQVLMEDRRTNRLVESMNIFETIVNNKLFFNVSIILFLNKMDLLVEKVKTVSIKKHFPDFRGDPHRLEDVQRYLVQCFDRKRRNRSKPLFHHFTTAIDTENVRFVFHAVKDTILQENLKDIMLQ
UniProt P29992: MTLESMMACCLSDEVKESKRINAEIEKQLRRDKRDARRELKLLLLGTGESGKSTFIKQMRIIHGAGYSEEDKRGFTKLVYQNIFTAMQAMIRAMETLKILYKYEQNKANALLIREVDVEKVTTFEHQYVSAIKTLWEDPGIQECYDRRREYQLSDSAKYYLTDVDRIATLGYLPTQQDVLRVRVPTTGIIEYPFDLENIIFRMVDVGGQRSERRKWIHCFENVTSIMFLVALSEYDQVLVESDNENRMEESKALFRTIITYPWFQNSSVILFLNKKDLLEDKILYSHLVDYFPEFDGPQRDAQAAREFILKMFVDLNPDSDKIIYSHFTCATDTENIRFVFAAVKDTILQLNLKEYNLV
UniProt Q14344: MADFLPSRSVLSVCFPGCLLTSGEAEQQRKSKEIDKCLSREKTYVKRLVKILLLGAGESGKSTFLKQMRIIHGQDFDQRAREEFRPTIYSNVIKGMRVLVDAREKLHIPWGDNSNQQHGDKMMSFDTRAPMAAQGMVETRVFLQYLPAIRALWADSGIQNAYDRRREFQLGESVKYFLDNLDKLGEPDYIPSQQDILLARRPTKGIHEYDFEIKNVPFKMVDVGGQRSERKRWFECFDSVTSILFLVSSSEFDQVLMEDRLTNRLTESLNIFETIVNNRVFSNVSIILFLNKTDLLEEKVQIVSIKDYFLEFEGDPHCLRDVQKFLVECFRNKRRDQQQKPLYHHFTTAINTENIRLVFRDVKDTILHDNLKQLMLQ
UniProt P50148: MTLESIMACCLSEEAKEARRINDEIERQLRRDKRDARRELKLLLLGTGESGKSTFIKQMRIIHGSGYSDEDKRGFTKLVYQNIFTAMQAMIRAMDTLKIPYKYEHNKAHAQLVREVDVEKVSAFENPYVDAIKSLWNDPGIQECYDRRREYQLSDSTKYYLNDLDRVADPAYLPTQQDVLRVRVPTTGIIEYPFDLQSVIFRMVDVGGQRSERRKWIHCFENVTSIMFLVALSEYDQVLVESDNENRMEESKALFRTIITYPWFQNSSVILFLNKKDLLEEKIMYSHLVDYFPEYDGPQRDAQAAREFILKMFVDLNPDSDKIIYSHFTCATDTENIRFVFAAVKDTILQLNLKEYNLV
UniProt P63096: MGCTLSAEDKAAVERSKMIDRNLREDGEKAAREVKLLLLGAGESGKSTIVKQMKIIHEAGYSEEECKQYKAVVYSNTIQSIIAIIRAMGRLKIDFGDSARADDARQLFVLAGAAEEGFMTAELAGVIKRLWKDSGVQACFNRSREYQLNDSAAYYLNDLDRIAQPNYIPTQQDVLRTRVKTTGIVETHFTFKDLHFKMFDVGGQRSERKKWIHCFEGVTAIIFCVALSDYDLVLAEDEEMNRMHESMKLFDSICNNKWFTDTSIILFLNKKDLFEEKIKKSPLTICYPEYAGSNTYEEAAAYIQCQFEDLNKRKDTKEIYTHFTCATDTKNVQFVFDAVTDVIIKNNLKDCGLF

No constants are given. Whether binding was seen depends on the method and setting. In cells and extracts the contact can be indirect. Some entries that bind do so weakly or less than the wild type. Sequences can lack the tags named with a protein.

This assay concerns the target T1, FLAG-GPR101 (human G-protein coupled receptor 101) (human) (UniProt Q96P66).
T1 sequence: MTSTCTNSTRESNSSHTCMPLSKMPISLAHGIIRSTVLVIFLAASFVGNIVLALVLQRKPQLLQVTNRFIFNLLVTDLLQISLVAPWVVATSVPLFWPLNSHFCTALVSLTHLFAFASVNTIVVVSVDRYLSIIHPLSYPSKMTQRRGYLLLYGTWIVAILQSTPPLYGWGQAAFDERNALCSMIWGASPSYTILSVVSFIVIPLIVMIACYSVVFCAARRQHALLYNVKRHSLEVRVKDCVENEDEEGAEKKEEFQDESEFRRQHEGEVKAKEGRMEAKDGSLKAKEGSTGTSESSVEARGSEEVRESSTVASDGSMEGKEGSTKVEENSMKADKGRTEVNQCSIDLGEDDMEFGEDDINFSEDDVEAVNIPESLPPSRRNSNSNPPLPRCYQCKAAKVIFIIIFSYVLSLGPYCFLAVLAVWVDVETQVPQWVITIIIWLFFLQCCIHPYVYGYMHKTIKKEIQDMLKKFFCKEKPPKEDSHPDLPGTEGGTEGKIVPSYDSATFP
Nature of the assay: co-IP; HEK293 cells co-transfected with FLAG-GPR101 and HA-tagged Gα protein, serum starved overnight; lysis in 20 mM Tris-HCl pH 7.5, 100 mM NaCl, 10 mM MgCl2, 2 mM EDTA, 1% Triton-X100; 900 µg lysate precipitated with mouse anti-FLAG antibody and Protein A/G PLUS-Agarose at 4 °C; washed with PBS, 1% NP-40; blot with anti-HA antibody.
In the case of “HA-tagged Gα12 (from UniProt Q03113 1-381)”, the binding entry is “binds”.

On to “HA-tagged Gα11 (from UniProt P29992 1-359)”, for which the binding entry is given as “binds”. The entry for “HA-tagged Gα13 (from UniProt Q14344 1-377)” is “binds”; for “HA-tagged Gαq (from UniProt P50148 1-359)” it is “binds”; for “HA-tagged Gαi1 (from UniProt P63096 1-354)” it is “no binding”.
